Source: PubChem BioAssay (NCATS)
The list shows a part of the results. The main result of the screen is listed elsewhere. These columns were measured beside it and carry no call. Most of these compounds were active or inconclusive in the main read-out, so they are no random draw. The note in brackets gives the kind of curve behind each potency; many fits are weak.

assay: qHTS Assay for Lipid Storage Modulators (AID 1519); conditions: Drosophila S3 cells, BODIPY lipid droplet/cell ratio, laser cytometry; measured here: lipid (BODIPY) channel AC50; cells loaded with oleic acid
Procedure, shortened: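 Cells seeded at 5,000 per well were treated with compounds over a concentration series and loaded with oleic acid (400 uM, as added). Lipid droplet fluorescence (488 nm excitation, 500-530 nm channel) was read by laser-scanning cytometry and normalized to 20 uM Triacsin C.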
Tags describe the fitted curve by direction and shape.

| Structure (SMILES) | AC50 |
| --- | --- |
| O=S(=O)(c1ccccc1)N1CCC2(CCCN(Cc3ccccc3)C2)CC1 | 0.891 µM [rising, full curve, poor fit] |
| CN1CCN(c2ncnc3ccc(-c4cccc(C#N)c4)cc23)CC1 | 1 µM [rising, full curve, poor fit] |
| O=C(c1ccccc1)c1ccc2n1CCC2C(=O)O (stereo unspecified) | 35.5 µM [rising, partial curve, poor fit] |
| Cc1noc(C)c1-c1nc(Nc2ccc(F)cc2)c2ccccc2n1 | 0.355 µM [rising, full curve] |
| COc1ccc(CNc2nc(-c3cccc(C#N)c3)nc3ccccc23)c(OC)c1 | 0.0224 µM [rising, full curve, poor fit] |
| COc1cccc(Cn2c(=O)c(CCc3ccccc3)nc3cnc(N4CCN(C)CC4)nc32)c1 | 0.631 µM [rising, full curve, poor fit] |
| Cc1cccc(/C=C\c2ccccc2)n1 | 14.1 µM [rising, partial curve] |
| O=c1[nH]c2cc([N+](=O)[O-])c([N+](=O)[O-])cc2[nH]c1=O | 7.94 µM [falling, full curve, poor fit] |
| CCNc1ncc2nc(C)c(=O)n(Cc3cccc(OC)c3)c2n1 | 0.0794 µM [rising, full curve, poor fit] |
| CCNc1ncc2nc(-c3ccc(Cl)cc3)c(=O)n(C)c2n1 | 2.51 µM [rising, full curve] |
| O=c1cc(-c2ccccc2)oc2cccc(O)c12 | 15.8 µM [rising, partial curve] |
